Experimental data: PubChem BioAssay (NCATS)
Some of the results follow. These are further read-outs of the screen, such as a control signal, another cell line or another target. No call is given for them. Most of these compounds were active or inconclusive in the main read-out, so they are no random draw. The note in brackets gives the kind of curve behind each potency; many fits are weak.

Test: Cell-based coincidence reporter assay to measure PMP22 gene transcription in S16 Pmp22-F2sN cells - Confirmatory screen (AID 1508646)
Details: S16 Schwann cells Pmp22-F2sN, dual luciferase, 24 h
Summary of the method: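 Coincidence reporter read as sequential FLuc then NLuc luminescence (Nano-Glo Dual-Luciferase, 10 min each). Engineered S16 Pmp22-F2sN Schwann cells, 500-1,000 per well in DMEM/10% FBS, were exposed to compounds for 24 h, 37C.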

[1] = measured here: FLuc reporter channel
[2] = measured here: NLuc reporter channel
Tags give direction and shape of the fitted curve.

SMILES	AC50 [1]	AC50 [2]
COC(=O)c1c(C)oc2ccc(N(C(=O)c3ccncc3)S(=O)(=O)c3c(C)cc(C)cc3C)cc12	24.3 µM [falling, partial curve, poor fit]	19.3 µM [falling, partial curve, poor fit]
COc1ccc(Br)c2c1-c1nc(NC(=O)c3cccc(C)c3)sc1C2	3.43 µM [falling, full curve]	4.32 µM [falling, partial curve, poor fit]
COc1ccc2nc(NC(=O)c3nc(SCc4cccc(C)c4)ncc3Cl)sc2c1	30.6 µM [falling, partial curve, poor fit]	27.3 µM [falling, partial curve]
CCCCN(CC)C(=O)CSc1nc2n[nH]c(C)c2c(=N)n1-c1ccc(CC)cc1	19.3 µM [falling, partial curve]	27.3 µM [falling, partial curve, poor fit]
CCCCn1c(=O)c2oc3ccccc3c2n(CC(=O)Nc2ccc(CC)cc2)c1=O	21.7 µM [falling, partial curve]	24.3 µM [falling, partial curve]
CCOc1ccccc1NC(=O)C(=O)NCCc1sc(-c2cccc(F)c2)nc1C	17.2 µM [falling, partial curve, poor fit]	17.2 µM [falling, partial curve, poor fit]
O=C(Nc1ccc(F)cc1Cl)C1CCN(c2ncnc3c2nc2n3CCCCC2)CC1	9.68 µM [falling, full curve, poor fit]	13.7 µM [falling, full curve, poor fit]
Cc1cc(C)c(NC(=O)Cn2c(=O)n(Cc3ccco3)c(=O)c3ccc(C(=O)NC4CCCC4)cc32)c(C)c1	12.2 µM [falling, full curve]	12.2 µM [falling, full curve]
O=C(CCCCn1c(=O)c2ccccc2n(CC(=O)Nc2ccc(F)cc2F)c1=O)NCc1ccccc1Cl	15.3 µM [falling, full curve]	21.7 µM [falling, partial curve, poor fit]
Cc1ccc(CNC(=O)c2ccc(Cn3c(=O)c4ccccc4n(CC(=O)Nc4c(C)cc(C)cc4C)c3=O)cc2)cc1	9.68 µM [falling, full curve]	6.11 µM [falling, full curve]
COc1ccc(-c2onc(C)c2C)cc1S(=O)(=O)NCc1ccc(C)o1	15.3 µM [falling, single point]	15.3 µM [falling, single point]
CCOCCCn1c(=N)c(C(=O)NC(C)c2ccccc2)cc2c(=O)n3cccc(C)c3nc21 (stereo not given)	21.7 µM [falling, partial curve]	21.7 µM [falling, partial curve]
O=C(CSc1nc2c([nH]c3ccccc32)c(=O)n1-c1cccc(Cl)c1)c1ccccc1	12.2 µM [falling, partial curve]	12.2 µM [falling, partial curve]
CCc1ccccc1NC(=O)Cn1c(=O)n(Cc2ccc3c(c2)OCO3)c(=O)c2ccc(C(=O)NC3CCCCC3)cc21	6.85 µM [falling, full curve]	15.3 µM [falling, partial curve]
O=C(CSc1nc2c([nH]c3ccccc32)c(=O)n1-c1ccc(Cl)cc1)NC1CCCCC1	17.2 µM [falling, partial curve]	17.2 µM [falling, partial curve]
Cc1ccc(NC(=O)N2CCc3cc(S(=O)(=O)N4CCC(C)CC4)ccc32)cc1F	15.3 µM [falling, partial curve]	13.7 µM [falling, full curve]
CCc1ccc(C2CC(=O)c3c([nH]c(C(=O)OCc4ccc(C)cc4)c3C)C2)cc1 (stereo not given)	15.3 µM [falling, partial curve, poor fit]	15.3 µM [falling, partial curve]
O=S(=O)(c1cccc(Cl)c1)c1nnn2c1nc(NC1CCCCCC1)c1sccc12	19.3 µM [falling, partial curve, poor fit]	19.3 µM [falling, partial curve, poor fit]
CCOC(=O)c1c(C)[nH]c(CCC(=O)NCCCN2CCN(c3cc(C)ccc3C)CC2)c1C	21.7 µM [falling, partial curve]	30.6 µM [falling, partial curve]
COc1cccc(NC(=O)CCCn2c(=O)c3cccn3c3cccnc32)c1	21.7 µM [falling, partial curve, poor fit]	6.11 µM [falling, partial curve, poor fit]

SMILES	AC50 [1]	AC50 [2]
COc1ccc(Nc2nc3c(S(=O)(=O)c4ccc(C)cc4)nnn3c3ccsc23)cc1Cl	10.9 µM [falling, partial curve]	21.7 µM [falling, partial curve]
Cc1oc(-c2ccc(Cl)cc2)nc1CN1CCCC(C(=O)NCc2ccccc2)C1 (stereo not given)	21.7 µM [falling, partial curve, poor fit]	43.2 µM [falling, partial curve, poor fit]
CCOCCCn1c(=N)c(C(=O)NCC2CCCO2)cc2c(=O)n3cccc(C)c3nc21 (stereo not given)	19.3 µM [falling, partial curve, poor fit]	27.3 µM [falling, partial curve, poor fit]
COc1ccc(NS(=O)(=O)c2ccc3c(c2)CC(C)N3C(=O)C2CCC2)cc1OC (stereo not given)	4.32 µM [falling, full curve]	1.93 µM [falling, full curve]
CC1=Nc2cc(C(=O)NCCc3ccc(Cl)cc3)ccc2Sc2c(C)ccc(C)c21	10.9 µM [falling, partial curve]	5.44 µM [falling, full curve, poor fit]
Cc1[nH]c2ccccc2c1C1(O)C(=O)N(Cc2ccccc2)c2ccc(Cl)cc21 (stereo not given)	24.3 µM [falling, partial curve]	24.3 µM [falling, partial curve]
COc1ccccc1N1CCN(c2ncnc3c2cnn3-c2cc(Cl)ccc2C)CC1	27.3 µM [falling, partial curve]	30.6 µM [falling, partial curve]
CC(C)c1ccc(OCC(=O)Nc2cc(-c3nc4ncccc4o3)ccc2Cl)cc1	21.7 µM [falling, partial curve, poor fit]	24.3 µM [falling, partial curve, poor fit]
O=C(CCn1cnnn1)Nc1cc(C(F)(F)F)cc(C(F)(F)F)c1	19.3 µM [falling, partial curve, poor fit]	10.9 µM [falling, partial curve, poor fit]
CCCN(CCC)CCCNC(=O)c1cc2c(=O)oc3ccc(C)cc3c2s1	10.9 µM [falling, partial curve]	21.7 µM [falling, partial curve]
Cc1ccc(CCNC(=O)C2CCN(c3nnc(-n4cccc4CNc4ccc(C)cc4)s3)CC2)cc1	10.9 µM [falling, partial curve]	19.3 µM [falling, partial curve]
Cc1cccc(N2CCN(S(=O)(=O)c3ccc4c(c3)CCCN4C(=O)C3CCC3)CC2)c1C	21.7 µM [falling, partial curve]	13.7 µM [falling, partial curve, poor fit]
CCOc1ccc(C(=O)c2cnc3ccc(Cl)cc3c2S(=O)(=O)c2ccc(C)cc2)cc1	19.3 µM [falling, partial curve]	19.3 µM [falling, partial curve]
COc1ccc(C2=C(C)C(=NCCCN3CCN(c4cc(C)ccc4C)CC3)NS2(=O)=O)cc1	21.7 µM [falling, partial curve, poor fit]	27.3 µM [falling, single point]
CCOc1ccc2nc(NC(=O)c3nc(SC(C)C)ncc3Cl)sc2c1	30.6 µM [falling, partial curve]	34.3 µM [falling, partial curve]
COc1ccc(-c2noc(CSc3nnc(-c4ccncc4)n3-c3ccccc3)n2)cc1	6.85 µM [falling, full curve]	5.44 µM [falling, full curve]
CC(C)OCCCNC(=O)CSc1c2c(nc3ccc(Cl)cc13)CCCC2	19.3 µM [falling, partial curve]	19.3 µM [falling, partial curve]
CSc1ccc(CCNC(=O)c2c(C)nn(-c3ccc(F)cc3)c2-n2cccc2)cc1	21.7 µM [falling, partial curve, poor fit]	8.62 µM [falling, partial curve, poor fit]
COc1ccc(Br)cc1CC1C(=O)Nc2ccccc21 (stereo not given)	0.0077 µM [falling, full curve, poor fit]	0.122 µM [falling, full curve, poor fit]
COc1ccc(OCC(=O)NCc2ccc3c(c2)CCN3C(=O)c2cccc(C)c2)cc1	10.9 µM [falling, full curve]	10.9 µM [falling, full curve, poor fit]
